Laboratory results reported in publication PMC4336329 (PLoS ONE, 2015).
Screen size: about 310,000 compounds; about 14,000 (4.5%) showed an effect of 50% or more. The effect is printed as a negative number. The list shows a part of the results.

The compounds below were run against human ether-à-go-go-related gene (hERG) potassium channel (human, UniProt Q12809) (assay: primary screen, population patch clamp on CHO cells stably expressing hERG).
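Further: peak tail current of the secondary pulse compared with the same well before compound.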

Sequence of human ether-à-go-go-related gene (hERG) potassium channel (Q12809 whole entry, looked up): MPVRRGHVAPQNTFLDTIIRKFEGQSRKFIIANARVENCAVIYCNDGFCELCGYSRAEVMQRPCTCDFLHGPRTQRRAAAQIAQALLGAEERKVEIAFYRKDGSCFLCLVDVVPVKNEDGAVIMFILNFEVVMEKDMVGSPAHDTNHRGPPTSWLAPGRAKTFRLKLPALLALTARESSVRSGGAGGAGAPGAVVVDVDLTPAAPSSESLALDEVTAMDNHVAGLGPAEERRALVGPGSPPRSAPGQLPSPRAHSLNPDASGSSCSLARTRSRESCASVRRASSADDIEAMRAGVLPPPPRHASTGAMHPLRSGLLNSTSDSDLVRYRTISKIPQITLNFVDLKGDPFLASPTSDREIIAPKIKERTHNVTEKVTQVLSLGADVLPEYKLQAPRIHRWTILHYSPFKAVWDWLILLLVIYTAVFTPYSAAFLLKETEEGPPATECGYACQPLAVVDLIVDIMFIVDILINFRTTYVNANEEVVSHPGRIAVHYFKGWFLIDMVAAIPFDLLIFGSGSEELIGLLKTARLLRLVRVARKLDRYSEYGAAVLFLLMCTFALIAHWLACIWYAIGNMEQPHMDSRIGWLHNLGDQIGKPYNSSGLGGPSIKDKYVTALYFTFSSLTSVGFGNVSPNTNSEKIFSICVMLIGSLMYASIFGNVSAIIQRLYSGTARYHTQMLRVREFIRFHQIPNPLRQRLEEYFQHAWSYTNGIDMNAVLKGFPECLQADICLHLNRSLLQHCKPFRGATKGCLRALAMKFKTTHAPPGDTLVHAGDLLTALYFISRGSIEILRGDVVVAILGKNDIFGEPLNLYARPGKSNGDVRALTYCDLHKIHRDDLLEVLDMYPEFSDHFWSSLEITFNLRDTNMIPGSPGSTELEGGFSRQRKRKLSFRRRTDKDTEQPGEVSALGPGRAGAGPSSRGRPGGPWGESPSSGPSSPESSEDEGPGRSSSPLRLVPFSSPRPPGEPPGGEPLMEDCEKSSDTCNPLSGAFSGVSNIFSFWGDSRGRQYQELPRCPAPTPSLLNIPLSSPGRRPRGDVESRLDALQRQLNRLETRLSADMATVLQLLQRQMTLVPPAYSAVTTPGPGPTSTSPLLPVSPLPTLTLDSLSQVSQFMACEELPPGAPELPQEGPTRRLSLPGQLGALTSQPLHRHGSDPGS

First: O=C(c1ccco1)N1CCN(C(c2coc3ccc(Cl)cc3c2=O)c2nnnn2C2CCCC2)CC1 (centres unmarked)
Second: O=C(CSc1nnc(NC(=O)c2ccco2)s1)NC1CCCCC1
The “hERG current change (%, negative = inhibition) at 10uM” value of the first is lower: -55.6% for the first, 2.07% for the second.

First: CCNC(=S)N1CCC(C(O)(c2ccccc2)c2ccccc2)CC1
Second: COc1ccccc1CN1C2CCCC1CC(NC(=O)/C=C/c1ccccc1)C2 (centres unmarked)
The “hERG current change (%, negative = inhibition) at 10uM” value of the first is higher: 11.8% for the first, -59.4% for the second.

First: O=C(CNC(=O)c1ccco1)OCC(=O)c1ccc(Cl)cc1
Second: COC(=O)c1cc2occc2n1Cc1ccc(Cl)cc1
The “hERG current change (%, negative = inhibition) at 10uM” value of the first is lower: -0.204% for the first, 9.68% for the second.

Going from `O=C(Cn1cc(-c2nnnn2-c2ccc(Cl)cc2)c(=O)c2ccccc21)c1ccccc1` to `O=C1c2ccccc2C(=O)N1CN(C(=O)c1ccccc1)c1ccc(O)cc1`, the “hERG current change (%, negative = inhibition) at 10uM” value rises from 4.29% to 7.61%.

Compared with `CC(=O)c1ccc(NC(=O)C(C)Sc2nnc(C3CCCCC3)o2)cc1` (centres unmarked), `CC(C)Nc1nnc(SC(C)C(=O)Nc2ccc(N3CCOCC3)cc2)s1` (centres unmarked) is higher in “hERG current change (%, negative = inhibition) at 10uM” value: -4.84% for the first, 4.69% for the second.

First: O=C1CN(CC(=O)NC2CCCc3ccccc32)CCN1 (centres unmarked)
Second: O=C(Cn1cnc2ccccc2c1=O)Nc1ccc2c(c1)CCC2
The “hERG current change (%, negative = inhibition) at 10uM” value of the first is higher: -0.286% for the first, -20% for the second.

First: O=S1(=O)N=C(N/N=C/c2ccc(Br)o2)c2ccccc21
Second: O=C(/C=C/c1ccco1)c1ccccc1O
The “hERG current change (%, negative = inhibition) at 10uM” value of the first is higher: 30.6% for the first, 21.8% for the second.

Going from `CCCN(CC(=O)Nc1ccccc1OC)C(=O)Cc1ccccc1F` to `CCOc1ccccc1NC(=O)Cc1coc2ccc(C)cc12`, the “hERG current change (%, negative = inhibition) at 10uM” value rises from -0.774% to 7.85%.

First: C[n+]1ccccc1C1CCCC/C1=N\Nc1ccc([N+](=O)[O-])cc1[N+](=O)[O-].[I-] (centres unmarked)
Second: O=C(Nc1ccc(Cc2ccncc2)cc1)c1cc([N+](=O)[O-])ccc1N1CCOCC1
The “hERG current change (%, negative = inhibition) at 10uM” value of the first is higher: -11.8% for the first, -39% for the second.

Going from `COc1ccc(/C=N/NC(=O)c2ccn[nH]2)cc1COc1ccc(F)cc1` to `COc1ccccc1CCC(=O)Nc1ccc2c(c1)CN(Cc1ccc(C)o1)CC2`, the “hERG current change (%, negative = inhibition) at 10uM” value falls from 15.8% to -27%.

Compared with `O=C(O)C(c1ccccc1)C(c1ccccc1)c1ccccc1` (centres unmarked), `O=C(O)C(Cc1ccccc1)n1c(=S)[nH]c2ccccc2c1=O` (centres unmarked) is higher in “hERG current change (%, negative = inhibition) at 10uM” value: 12.4% for the first, 20.9% for the second.

First: CCN1CCc2c(OCC(=O)N3CCC(C)CC3)cccc2C1=O
Second: Cc1cc(C)n(C(=O)COc2ccccc2C)n1
The “hERG current change (%, negative = inhibition) at 10uM” value of the first is higher: 11.4% for the first, -3.33% for the second.

Going from `Cc1cc[n+](Cc2ccccc2)c(N)c1.[Cl-]` to `CC(=O)C1=C(O)C(=O)N(Cc2ccccc2)C1c1ccco1` (centres unmarked), the “hERG current change (%, negative = inhibition) at 10uM” value falls from 7.26% to 2.63%.

Compared with `N#CCCN/N=C(/Cc1nc2ccccc2[nH]1)c1ccc(Cl)cc1`, `CCN(CC)Cc1cc(CCNC(=O)c2ccc(Cl)cc2)ccc1O` is lower in “hERG current change (%, negative = inhibition) at 10uM” value: -16.6% for the first, -30% for the second.

Going from `Cc1ccc(S(=O)(=O)Nc2nc3ccc(S(C)(=O)=O)cc3s2)cc1` to `Cc1cc(C)cc(C(=O)OCC(=O)Nc2cccc(S(=O)(=O)NC3=NCCCCC3)c2)c1`, the “hERG current change (%, negative = inhibition) at 10uM” value falls from 17.5% to -10.3%.

Compared with `O=C(CCN1C(=O)/C(=C\c2ccc(F)cc2)SC1=S)Nc1ccc(O)cc1`, `COc1ccc(NC(=O)/C=C2\SC(=O)NC2=O)cc1` is lower in “hERG current change (%, negative = inhibition) at 10uM” value: 17.2% for the first, 16.3% for the second.

Going from `O=c1ccc2cc(S(=O)(=O)N3CCN(c4ccccc4F)CC3)ccc2[nH]1` to `O=C(Nc1cccc(C(F)(F)F)c1)c1cc(S(=O)(=O)N2CCCCC2)ccc1N1CCOCC1`, the “hERG current change (%, negative = inhibition) at 10uM” value rises from -18.1% to -8.02%.

Compared with `COCCNC(=O)c1ccc(-n2c(SCc3cc(F)ccc3F)nc3ccccc3c2=O)cc1`, `COCCNC(=O)c1ccc2c(c1)ncn2-c1ccc(C)c(Cl)c1` is lower in “hERG current change (%, negative = inhibition) at 10uM” value: 10.8% for the first, -17.8% for the second.

Going from `O=C1C2CCN(CC2)[C@@H]1Cc1ccc2ccccc2c1O` to `O=C(NCCCN1CCOCC1)c1cc2c([nH]c3ccccc32)c(-c2cccc(Br)c2)n1`, the “hERG current change (%, negative = inhibition) at 10uM” value falls from -36.8% to -40.8%.

Going from `CC(=O)c1ccc(NC(=S)Nc2cccc(Cl)c2C)cc1` to `COc1cccc(N2CCN(C(=O)Nc3ccccc3Cl)CC2)c1`, the “hERG current change (%, negative = inhibition) at 10uM” value falls from 9.05% to -10.5%.

Going from `COC(=O)C(C)SC1=N/C(=C/c2ccc(-n3cncn3)cc2)C(=O)N1` (centres unmarked) to `COc1ccc(-c2nn(-c3ccccc3)cc2C(=O)NC2CC2)cc1`, the “hERG current change (%, negative = inhibition) at 10uM” value falls from -2.6% to -4.55%.

First: CCN(CC)CC(=O)c1c(N)n(Cc2ccccc2)c(=O)n(C)c1=O
Second: Cc1nnc(SCC(=O)N(C)Cc2ccccc2)[nH]c1=O
The “hERG current change (%, negative = inhibition) at 10uM” value of the first is lower: -2.27% for the first, 6.86% for the second.

First: CC(C)c1nc(-c2ccc([N+](=O)[O-])cc2)cs1
Second: CC(Oc1ccccc1)c1ccnn1S(C)(=O)=O (centres unmarked)
The “hERG current change (%, negative = inhibition) at 10uM” value of the first is lower: 1.87% for the first, 9.36% for the second.

Going from `CCCCC(CC)CNC(=O)CCCCn1c(=O)[nH]c2ccsc2c1=O` (centres unmarked) to `CCCCC(CC)CNC(=O)C(=O)C1C(=O)Nc2ccccc21` (centres unmarked), the “hERG current change (%, negative = inhibition) at 10uM” value rises from 1.39% to 5.84%.

First: O=C(CCSc1ccc(Cl)cc1)N1CCCCCC1
Second: O=C(CSc1cccc[n+]1[O-])N1CCCCCC1
The “hERG current change (%, negative = inhibition) at 10uM” value of the first is lower: -4.88% for the first, 9.81% for the second.

Compared with `COc1ccc(C(CNS(=O)(=O)c2ccccc2)N2CCN(C)CC2)cc1` (centres unmarked), `COc1ccc(N(C)S(=O)(=O)c2cccc(C(=O)NC3CCCCC3C)c2)cc1` (centres unmarked) is higher in “hERG current change (%, negative = inhibition) at 10uM” value: -35.7% for the first, -6.33% for the second.

Compared with `CCOC(=O)CNC(=O)CN1C(=O)CC(c2ccco2)Sc2ccccc21` (centres unmarked), `Cc1onc(-c2ccccc2)c1C(=O)OCC(=O)Nc1ccc2c(c1)OCO2` is higher in “hERG current change (%, negative = inhibition) at 10uM” value: -43.2% for the first, 11.7% for the second.

Going from `Cc1nc(NC(=O)CSc2nc3ccccc3s2)sc1C(=O)N(C)C` to `CCOC(=O)NC(Nc1nc2ccccc2s1)(C(=O)OCC)C(F)(F)F` (centres unmarked), the “hERG current change (%, negative = inhibition) at 10uM” value rises from -5.34% to -2.55%.

Compared with `COc1ccc(/C=C2\OC(=O)c3c(OC)cccc32)cc1OC`, `COc1ccc(C2C(C(=O)Nc3cccc(C)n3)c3ccccc3C(=O)N2C)cc1OC` (centres unmarked) is lower in “hERG current change (%, negative = inhibition) at 10uM” value: 11.9% for the first, -30.1% for the second.

First: CCOc1ccc(OCC)c(NC(=O)C2CCCN(S(=O)(=O)c3c(C)noc3C)C2)c1 (centres unmarked)
Second: O=C(COc1ccc(F)cc1)Nc1nnc(S(=O)(=O)N2CCCC2)s1
The “hERG current change (%, negative = inhibition) at 10uM” value of the first is lower: 0.212% for the first, 8.11% for the second.

Going from `CC1=C(C)C(OCCCl)N(c2cc(O)c(Cl)cc2F)C1=O` (centres unmarked) to `CCOC(=O)Cn1cc(Cl)c(=O)c(Cl)c1`, the “hERG current change (%, negative = inhibition) at 10uM” value falls from 16.1% to 0.91%.

Compared with `CN1CCN(Cc2ccc(N)cc2)CC1`, `CC1CC(C)(C)N(C(=O)CN2CCN(C)CC2)c2ccccc21.O=C(O)C(=O)O` (centres unmarked) is higher in “hERG current change (%, negative = inhibition) at 10uM” value: 7.24% for the first, 10.6% for the second.

First: CCCCc1ccc(-c2ccc(Br)cc2O)nc1
Second: N=c1oc2ccc(Br)cc2cc1C(=O)NCc1ccc(F)cc1
The “hERG current change (%, negative = inhibition) at 10uM” value of the first is higher: 10.4% for the first, 5.37% for the second.

First: COc1ccccc1/C=C/C(=O)NC1CC2CCC1C2 (centres unmarked)
Second: O=C(O)C1C2C=CC(C2)C1C(=O)N1CCN(C/C=C/c2ccccc2)CC1 (centres unmarked)
The “hERG current change (%, negative = inhibition) at 10uM” value of the first is lower: -3.53% for the first, 17.1% for the second.

First: CC1CCc2c(sc3ncn(N)c(=N)c23)C1 (centres unmarked)
Second: Cc1cc2c(SCC(=O)N3CCN(c4ccccc4)CC3)ncnc2s1
The “hERG current change (%, negative = inhibition) at 10uM” value of the first is lower: -11.3% for the first, 2.2% for the second.

Going from `CN(C)/N=C/c1cc(Cl)cc([N+](=O)[O-])c1O` to `O=C(CCc1ccc(S(=O)(=O)N2CCOCC2)cc1)N/N=C/c1ccc(O)c(O)c1O`, the “hERG current change (%, negative = inhibition) at 10uM” value rises from 8.21% to 18.9%.

Going from `Cc1cc(NC(=O)CSc2nc(-c3ccccc3)c(C#N)c(=O)[nH]2)no1` to `Cc1cc(C)n2cc(COc3ccccc3)nc2n1`, the “hERG current change (%, negative = inhibition) at 10uM” value falls from -0.629% to -8.64%.

Going from `Cc1ccc(Cn2c(C3CCCN3c3nc(-c4ccc(F)cc4)cs3)nc3cc(C(F)(F)F)ccc32)cc1` (centres unmarked) to `COc1ccc(C2N(Cc3ccccc3)CC(=O)N2/N=C(\C)c2ccccc2)cc1` (centres unmarked), the “hERG current change (%, negative = inhibition) at 10uM” value rises from 0.76% to 5.62%.

Compared with `COCCNC(=O)CN1C(=O)NC2(CCCCCC2)C1=O`, `CCn1c(C)c(C)c2cc(C(=O)NCCCN3CCCCC3C)ccc21` (centres unmarked) is lower in “hERG current change (%, negative = inhibition) at 10uM” value: 2.42% for the first, -36.7% for the second.

Compared with `Cc1ccc(S(=O)(=O)N2CCN(CC(O)CN3CCOCC3)CC2)cc1` (centres unmarked), `O=C(NC12CC3CC(CC(C3)C1)C2)c1ccc(S(=O)(=O)N2CCOCC2)cc1` is lower in “hERG current change (%, negative = inhibition) at 10uM” value: 5.52% for the first, 1.24% for the second.

Going from `Cc1ccc(Nc2nc(N)nc(CN3CCCCCC3)n2)c(C)c1` to `C/C=C/c1cc(CN2CCN(c3ccc(OC)cc3)CC2)c(O)c(OC)c1`, the “hERG current change (%, negative = inhibition) at 10uM” value falls from -45.8% to -68.7%.

First: COc1ccc(N2C(=O)[C@@H]3[C@H](C2=O)[C@H](C(C)=O)N2c4ccccc4C=C[C@@H]32)cc1
Second: COc1ccc(C2C(C#N)=C(N)Oc3cc(N)ccc32)cc1 (centres unmarked)
The “hERG current change (%, negative = inhibition) at 10uM” value of the first is higher: 2.41% for the first, -0.464% for the second.

Compared with `CC1(C)Cc2c(sc(NC(=O)c3ccc(Br)o3)c2C#N)CO1`, `COc1ccc(C(C)=O)cc1COC(=O)CNC(=O)c1cc(C)cc(C)c1` is lower in “hERG current change (%, negative = inhibition) at 10uM” value: 16.6% for the first, -11.7% for the second.

Going from `O=C(Nc1nnc(C2CC2)s1)C1=NN(C2CCS(=O)(=O)C2)C(=O)CC1` (centres unmarked) to `C=CCOc1ccc(/C=C/C(=O)OCC(=O)N(C)C2CCS(=O)(=O)C2)cc1` (centres unmarked), the “hERG current change (%, negative = inhibition) at 10uM” value falls from 0.219% to -8.77%.

For `C#CCOC(=O)c1ccccc1C(=O)N(CC)CC`, the “hERG current change (%, negative = inhibition) at 10uM” value was 17.4%.
